± gives the standard deviation of the averaged measurements. The list shows a part of the results.
Test system: PfAP2-EXP AP2 domain (GST-tagged)
Assay: gcPBM binding intensity (ln(normalized median fluorescence intensity)); higher = stronger DNA binding
Procedure, shortened: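 Binding intensity is the highest Masliner-normalised natural-log median intensity over replicate spots in either probe orientation. To obtain it, GST-tagged P. falciparum DNA-binding domains made in E. coli were incubated for 1 h on an Agilent 4 × 180k array of primer-extended double-stranded 36-bp intergenic genomic probes plus negative controls. Detection used Alexa488 anti-GST antibody with scanning at 488 nm.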

Sequence	gcPBM binding intensity (ln)
ATAAATAAATTTATACGTACACATAATATATATATA [XGTACX_site4634]	9.61 ± 0.18
AATCCACAAAGACACACACACACATATATATATATA [CACACA_site1269]	10.2 ± 0.35
TAATTAATATATTTTTGTACTTATATATTTGCGTAT [XGTACX_site340]	8.45 ± 0.38
TTATAATATATATGTGGTACTTATTTATTTATTTAT [XGTACX_site7572]	8.24 ± 0.4
ATTTTTGATTTTAAAAGTACATAAGTATACTATTTA [XGTACX_site7162]	8.37 ± 0.25
TTTTGTAATTTTGTATGTACACATTAAAGTAATATG [XGTACX_site2401]	8.55 ± 0.37
AAAATTCTTCGGGGGAGTACAAGGATATTCTACGTT [XGTACX_site3974]	9.69 ± 0.41
TACATATAAATAATAACACACACCTAGGTACATGGA [CACACA_site838]	8.68 ± 0.52
TTTAAAAAAAATATGTGTACTTAATATTTTCATATA [XGTACX_site7421]	8.22 ± 0.11
AGAAAGGAGGAAATAAAAGGACTTCTTTTTTTATAT [CACACA_negctrl_site810]	8.2 ± 0.42
CATACACAGAAACACACACACATATATATATATATA [CACACA_site4519]	10.1 ± 0.37
ATTCATATCTACTTCACACACATTTGATCATTCAAA [CACACA_site7207]	8.9 ± 0.47
AAAATCTATATTAACACACACACAAAAAAAAAAAAA [CACACA_site6738]	8.41 ± 0.52
ATGAAACAGTAACATTGTACTTTTACAAAAAAATAA [XGTACX_site806]	8.41 ± 0.38
ATAGTATTTTTTATTACACACAAATAAAAAGAAAAA [CACACA_site2087]	8.48 ± 0.46
ATCTTTCGTACATGTACACACAGAAAAAAAAAAAAA [CACACA_site2502]	8.62 ± 0.54
GTGTAATCATATAAGGGTACAAAAAATGTCTAACAA [XGTACX_site8122]	8.84 ± 0.61
GTTCCCATAAATAAATGTACATATTATATATATATA [XGTACX_site3242]	9.73 ± 0.12
ATAAATAAAACAAAATGTACAAATATTCATATATTC [XGTACX_site1307]	8.49 ± 0.32
ATATATATATATGTTAGTACTTATATTGAAATGGTA [XGTACX_site1406]	10.1 ± 0.18
ATTTTTTTTTTTTTTGAACACACATTATTAATTTTT [CACACA_site7990]	8.41 ± 0.45
ATATATTTTATATAGTGTACTTTAATTTTTTTTTTT [XGTACX_site5550]	8.23 ± 0.34
TTTCATTTCACAGACACACACACACCCTATATTTCC [CACACA_site3906]	8.88 ± 0.5

Sequence	gcPBM binding intensity (ln)
TTATTTACCTATTATAGTACATATAATTAATATAAT [XGTACX_site5724]	8.41 ± 0.24
ATTAAAAAATCCATAGTGCACTACGATAGGTTCCGA [GTGCAC_site9463]	9.09 ± 0.16
AAAGATGGAGTGATATGTACTGATATATTATTATAT [XGTACX_site6500]	8.53 ± 0.3
AAGCATAAAGTATATAGTACATATATATATATATAT [XGTACX_site2945]	10.2 ± 0.26
ATATTTTAATTATAAAGTACATAAAAATATATAAAC [XGTACX_site6705]	8.58 ± 0.3
ATATAGTAAAGTTATACACACATGAATTTTCCCATA [CACACA_site7457]	8.32 ± 0.47
TTTTTTATTGTGATACGTATATTATTTTATGATAAA [CACACA_negctrl_site1591]	8.86 ± 0.34
TAAAAATGTAAACACACACACATAAATATATTTTAT [CACACA_site5397]	8.69 ± 0.41
CTTTTGCCCAAAAAGGTACACACCACAATGTACATA [CACACA_site809]	8.78 ± 0.4
GTTAATATACATAAACGTACAGAATTATTATGAGTT [XGTACX_site5185]	8.4 ± 0.36
GCTTGGATATATTAATGTACTTATATATTATGTTGT [XGTACX_site3768]	8.76 ± 0.35
TAAATAATCGCATAATGTACATATAATTTTTTTTTT [XGTACX_site4880]	8.31 ± 0.41
AAAATTTTTTTTATTTGTACACAATTCGATACATAA [XGTACX_site4804]	8.72 ± 0.45
CCAATTCAAATATGCACACAAATTTGAAAACGATTA [CACACA_site3607]	8.45 ± 0.45
TTTGTTGTTGTGAAACGTACTCATAGGATGTTGTAT [XGTACX_site5716]	8.57 ± 0.32
ATATTTTCAATGTTCACACATACACAAAAAAAAAAA [CACACA_site6077]	8.62 ± 0.59
TAATATTTATCAAGTCGTACATAAAATGTATAATAA [XGTACX_site1103]	8.51 ± 0.21
ACAAAGAAATATAATACACACAAGAATATATTGGAT [CACACA_site3901]	8.77 ± 0.35
GTACAATAAGATGTAGCATGCCGTACCTTCACTACG [TGCATGCA_site235]	8.76 ± 0.41
TATACATATTTGTATTGTACATAAACTAAATCTTCA [XGTACX_site610]	8.21 ± 0.36
CAAATAACAAAATAATGTACATTTATACTTTTTTTT [XGTACX_site943]	8.22 ± 0.41
ATACTGTATGAAAGCACACATACTTATTACTAACAT [CACACA_site4164]	8.77 ± 0.45
TATCTCTACAAAATTTTATTCATTATTCATGTTATA [XGTACX_negctrl_site452]	8.69 ± 0.28

Sequence	gcPBM binding intensity (ln)
TCTAATAAAATAAATACATGCATACATACATACATA [TGCATGCA_site895]	8.66 ± 0.11
AAATAGAGAAATACAAGTACATACTAAACCTATCTA [XGTACX_site1334]	8.38 ± 0.53
AGGATTATATATTAATGTACCCGCGTTAATTTTTTT [XGTACX_site2878]	8.51 ± 0.35
TGAACAACTATTACTGCACACATTCTTACACTATAT [CACACA_site4533]	8.95 ± 0.24
TTTTTTAAACGTTTAAATAATTAAATATAAATAAAT [CACACA_negctrl_site1567]	8.29 ± 0.49
AAAAAAGAAACAATCGCATGCAATGTTAATGTACAT [TGCATGCA_site395]	9.6 ± 0.33
AGGTGTCATATATGCACACAAAAGTAACACGCACCT [CACACA_site472]	8.99 ± 0.18
TACGCAAAATAAAATCAAAATATAAGGAAAAAAAAA [TGCATGCA_negctrl_site578]	8.41 ± 0.42
ACATTTATTTTGAATGGTACACTATTATTATGAAAT [XGTACX_site4384]	8.36 ± 0.38
GACCTACAAAAAGGCACACATATACTCATACATACA [CACACA_site5232]	8.6 ± 0.38
GTGTAATGCTTATCGGTGCATATATATATATATATA	10.1 ± 0.36
GATAATTTTTGCATATGTACTTAAAAATTAAAAATT [XGTACX_site7037]	8.81 ± 0.39
AAAAAAAAAAAAGGTACTACACACTATTATCAATAG [XGTACX_site161]	8.38 ± 0.49
AATTCTTTTTTCAACACACACACACCCGAAAATATA [CACACA_site3111]	8.87 ± 0.53
ATATAGGTAATATTTTGTACATATTTTTGGGGTAGT [XGTACX_site5634]	9.41 ± 0.94
AGATACTTTTTTAAAAGTACAAAAACTTTCGATATA [XGTACX_site959]	8.3 ± 0.38
ATATTTTTTGTATGTTGTACATAAAATATACATTTT [XGTACX_site6815]	8.36 ± 0.23
CATACATACATACATACACACATACATATATATATA [CACACA_site8388]	9.91 ± 0.14
TCTAAAATAGTCCAGAGTACAAGAAACCATAATATA [XGTACX_site5237]	8.54 ± 0.33
ATAAAAATATAAACATGTACATAAAAATCTATATAT [XGTACX_site405]	8.85 ± 0.36
TTGCTTATATTTCTAAAATGTAAAAGACACAAAGGT [XGTACX_negctrl_site225]	8.85 ± 0.29
TTCTAATATATGCATACACACAAATGTGAATATACA [CACACA_site2142]	8.6 ± 0.3
AAAAATGCAATTTAATGTACACATAAGATGTTATTT [XGTACX_site6853]	8.37 ± 0.35

Sequence	gcPBM binding intensity (ln)
TTTTTTATTACTTTGTGTACTTACACAGAACCTTAT [XGTACX_site6038]	8.8 ± 0.28
ATATATTTATTTATATGTACATAATATTTTTCTCAG [XGTACX_site800]	8.6 ± 0.37
AAAAAAAAAAAAAACACACACACACCCAAATATATA [CACACA_site1169]	8.71 ± 0.3
TAAAAAAACATATATTGTACGGAGATAATAATTTTT [XGTACX_site2946]	8.68 ± 0.32
AAAAATAAAAAAATAATAAAATAAAAAATAAAAAAT [TGCATGCA_negctrl_site89]	8.35 ± 0.57
ATGTATAAACATATATGTACTTAAATAAAATGTTAA [XGTACX_site4044]	8.59 ± 0.3
ATTAAAAGAACAATGTAAAAAAAGCAAATTAAAGAT [TGCATGCA_negctrl_site360]	9.08 ± 0.49
CACCAATTCATATGCACACACATCTGCATATTATAT [CACACA_site1773]	8.9 ± 0.23
TATACTGTCAATTCTACACACCATAGGGGGAGCATA [CACACA_site1875]	9.63 ± 0.23
TTATTAAATGAAAAATGTACATATAAATGATTATAT [XGTACX_site2788]	8.51 ± 0.25
GAAATGTGTAGACACGCACACACAAAAAAATATATA [CACACA_site2912]	8.62 ± 0.33
TATACATATTTAATATGTACATAATAATACTTATTC [XGTACX_site6939]	8.29 ± 0.31
CCAAATTTATAAAGAACACACACATATATATATATA [CACACA_site7900]	9.99 ± 0.4
AAGCATGTAGAATAATGTACTTGTGATTTTAATATA [XGTACX_site8565]	8.29 ± 0.3
AAAAAAAAAATACAGGTGCAATAAGAAAAAAATGGT	9.28 ± 0.26
TATATTAACAAAATGGTGCAATAATTTCTATATTAT [GTGCAC_site9857]	8.695 ± 0.049
TCGTTTCCTTAAAATTGTACTTTTTTTTTTTTTTTT [XGTACX_site64]	8.73 ± 0.26
TATTATAAAGAAATTACACACATGCAATGAAAAAAA [CACACA_site1697]	8.89 ± 0.32
TGTTATTATTTGTACACACACATATAGATCCTTGTT [CACACA_site7667]	8.86 ± 0.26
TAATGATAAATACATACACACAAAAAATAATATATA [CACACA_site2576]	8.75 ± 0.49
